One molecule from the supplement of paper PMC8728848 can be followed below.

The other results are listed elsewhere or left out.

Holding throughout (assay): glycan array binding signal (z-score within array); higher = stronger binding
Holding throughout (settings): glycan notation: IUPAC condensed, linker removed

The target in experiment [1] is Gal(b1-4)GlcNAc(b1-2)Man(a1-6)[GlcNAc(b1-2)Man(a1-3)]Man(b1-4)GlcNAc(b1-4)GlcNAc. In outline:
(§1)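 Columns mapping to the same glycan were averaged after glycan names were converted to IUPAC-condensed notation. The data come from 3228 arrays in the Consortium for Functional Glycomics database, limited to those with an available protein sequence. Binding is reported as a within-array Z-score averaged across arrays of one protein sequence and across linkers.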

For experiment [2], the target named is Gal(b1-4)GlcNAc(b1-2)Man(a1-6)[Man(a1-3)]Man(b1-4)GlcNAc(b1-4)GlcNAc. The gist of the method:
as §1

Experiment [3] has as its target Gal(b1-4)GlcNAc(b1-2)[Gal(b1-4)GlcNAc(b1-4)]Man(a1-3)[Gal(b1-4)GlcNAc(b1-2)Man(a1-6)]Man(b1-4)GlcNAc(b1-4)GlcNAc. The gist of the method:
as §1

Experiment [4] deals with Gal(b1-4)GlcNAc(b1-2)[Gal(b1-4)GlcNAc(b1-4)]Man(a1-3)[Gal(b1-4)GlcNAc(b1-2)[Gal(b1-4)GlcNAc(b1-6)]Man(a1-6)]Man(b1-4)GlcNAc(b1-4)GlcNAc. The gist of the method: as §1
Experiment [5] deals with Gal(b1-4)GlcNAc(b1-2)[Gal(b1-4)GlcNAc(b1-4)]Man(a1-3)[GlcNAc(b1-4)][Gal(b1-4)GlcNAc(b1-2)Man(a1-6)]Man(b1-4)GlcNAc(b1-4)GlcNAc. The gist of the method: as §1
Experiment [6] concerns the target Gal(b1-4)GlcNAc(b1-2)[Gal(b1-4)GlcNAc(b1-4)]Man(a1-3)[GlcNAc(b1-4)][Gal(b1-4)GlcNAc(b1-2)[Gal(b1-4)GlcNAc(b1-6)]Man(a1-6)]Man(b1-4)GlcNAc(b1-4)GlcNAc. The gist of the method: as §1
The target of experiment [7] is Gal(b1-4)GlcNAc(b1-2)[Gal(b1-4)GlcNAc(b1-6)]Man(a1-6)[Gal(b1-4)GlcNAc(b1-2)Man(a1-3)]Man(b1-4)GlcNAc(b1-4)GlcNAc. The gist of the method: as §1
In experiment [8] the target is Gal(b1-4)GlcNAc(b1-2)[Gal(b1-4)GlcNAc(b1-6)]Man(a1-6)[Gal(b1-4)GlcNAc(b1-2)Man(a1-3)]Man(b1-4)GlcNAc(b1-4)[Fuc(a1-6)]GlcNAc. In outline:
as §1

The target of experiment [9] is Gal(b1-4)GlcNAc(b1-2)[Gal(b1-4)GlcNAc(b1-6)]Man(a1-6)[GlcNAc(b1-4)][Gal(b1-4)GlcNAc(b1-2)Man(a1-3)]Man(b1-4)GlcNAc(b1-4)GlcNAc. The gist of the method: as §1
Experiment [10] deals with Gal(b1-4)GlcNAc(b1-2)[Gal(b1-4)GlcNAc(b1-6)]Man(a1-6)[GlcNAc(b1-4)][Gal(b1-4)GlcNAc(b1-2)[Gal(b1-4)GlcNAc(b1-4)]Man(a1-3)]Man(b1-4)GlcNAc(b1-4)[Fuc(a1-6)]GlcNAc. The gist of the method: as §1
The target in experiment [11] is Gal(b1-4)GlcNAc(b1-3)Gal(b1-3)GalNAc. The gist of the method:
as §1

Experiment [12] has as its target Gal(b1-4)GlcNAc(b1-3)Gal(b1-3)GlcNAc. The gist of the method: as §1
The target in experiment [13] is Gal(b1-4)GlcNAc(b1-3)Gal(b1-4)Glc. The gist of the method: as §1
Experiment [14] has as its target Gal(b1-4)GlcNAc(b1-3)Gal(b1-4)GlcNAc. The gist of the method: as §1
The target in experiment [15] is Gal(b1-4)GlcNAc(b1-3)Gal(b1-4)GlcNAc(b1-2)Man(a1-3)[Gal(b1-4)GlcNAc(b1-3)Gal(b1-4)GlcNAc(b1-2)Man(a1-6)]Man(b1-4)GlcNAc(b1-4)GlcNAc. The gist of the method:
as §1

For experiment [16], the target named is Gal(b1-4)GlcNAc(b1-3)Gal(b1-4)GlcNAc(b1-2)Man(a1-3)[Gal(b1-4)GlcNAc(b1-3)Gal(b1-4)GlcNAc(b1-2)Man(a1-6)]Man(b1-4)GlcNAc(b1-4)[Fuc(a1-6)]GlcNAc. In outline:
as §1

Experiment [17] concerns the target Gal(b1-4)GlcNAc(b1-3)Gal(b1-4)GlcNAc(b1-2)[Gal(b1-4)GlcNAc(b1-3)Gal(b1-4)GlcNAc(b1-6)]Man(a1-6)[Gal(b1-4)GlcNAc(b1-3)Gal(b1-4)GlcNAc(b1-2)Man(a1-3)]Man(b1-4)GlcNAc(b1-4)GlcNAc. In outline:
as §1

Experiment [18] addresses Gal(b1-4)GlcNAc(b1-3)Gal(b1-4)GlcNAc(b1-2)[Gal(b1-4)GlcNAc(b1-3)Gal(b1-4)GlcNAc(b1-6)]Man(a1-6)[Gal(b1-4)GlcNAc(b1-3)Gal(b1-4)GlcNAc(b1-2)Man(a1-3)]Man(b1-4)GlcNAc(b1-4)[Fuc(a1-6)]GlcNAc. The gist of the method: as §1
Experiment [19] deals with Gal(b1-4)GlcNAc(b1-3)Gal(b1-4)GlcNAc(b1-3)Gal(b1-4)GlcNAc. In outline: as §1
In experiment [20] the target is Gal(b1-4)GlcNAc(b1-3)Gal(b1-4)GlcNAc(b1-3)Gal(b1-4)GlcNAc(b1-2)Man(a1-3)[Gal(b1-4)GlcNAc(b1-3)Gal(b1-4)GlcNAc(b1-3)Gal(b1-4)GlcNAc(b1-2)Man(a1-6)]Man(b1-4)GlcNAc(b1-4)GlcNAc. The gist of the method:
as §1

In experiment [21] the target is Gal(b1-4)GlcNAc(b1-3)Gal(b1-4)GlcNAc(b1-3)Gal(b1-4)GlcNAc(b1-2)Man(a1-3)[Gal(b1-4)GlcNAc(b1-3)Gal(b1-4)GlcNAc(b1-3)Gal(b1-4)GlcNAc(b1-2)Man(a1-6)]Man(b1-4)GlcNAc(b1-4)[Fuc(a1-6)]GlcNAc. The gist of the method: as §1
The target in experiment [22] is Gal(b1-4)GlcNAc(b1-3)Gal(b1-4)GlcNAc(b1-3)Gal(b1-4)GlcNAc(b1-2)[Gal(b1-4)GlcNAc(b1-3)Gal(b1-4)GlcNAc(b1-3)Gal(b1-4)GlcNAc(b1-6)]Man(a1-6)[Gal(b1-4)GlcNAc(b1-3)Gal(b1-4)GlcNAc(b1-3)Gal(b1-4)GlcNAc(b1-2)Man(a1-3)]Man(b1-4)GlcNAc(b1-4)[Fuc(a1-6)]GlcNAc. In outline:
as §1

B1: AFL5 (Aspergillus fumigatus), Q4WB00 (protein)
chain: MDNFMEMTKKLGHQPELLRLRALDATYDDALEGKLVVAPLDMSEPGKKILDSGTADGTWLRNVRSKQSVPHDYYGSDVEGELFPKDPDGITYFAHSFKDPWPQQYLGFFDLVHIRGSLAGSAPEGPAPVIQNLTTLLKPGGWVQLMEMNAFSPPPNGPAMTDFAKMASEMFTGIGVGDFANNNKSMLEDAGLKNVQEKRVIVNLGKKAKPELHDQSIHGVTGPIVPLTSVARTVKSSFTGEQLDALPARVKEELETEGGQVEMIIAFGQKA
As to B1, the “glycan array binding signal (z-score)” value in experiment [1] was 0; in experiment [2], 0.402; in experiment [3] it was -0.297; in experiment [4], -0.466; in experiment [5], -0.134; in experiment [6], -0.419. Moreover, the “glycan array binding signal (z-score)” value in experiment [7] is 0.487; in experiment [8], -0.149; in [9], -0.405; in [10], 3.2; in experiment [11] it was -0.006; in experiment [12] it was -0.579. For the same molecule, the “glycan array binding signal (z-score)” value in experiment [13] is -0.248; in experiment [14], -0.236; in experiment [15], 1.15; in experiment [16], 1.35; in experiment [17], 0.482; in experiment [18] it was 0.673. The “glycan array binding signal (z-score)” value in experiment [19] was -0.697; in [20] it was 0.801; in experiment [21], 0.701; in experiment [22], 0.485.
